Here are results for 61 compounds from article PMC9574860, “Chemical Toolkit for PARK7: Potent, Selective, and High-Throughput” (Journal of Medicinal Chemistry, 2022).

Out of some 7,900 compounds screened, about 400 (5.1%) showed an effect of 50% or more. This is one part of the list.

Parkinson's disease protein 7 (PARK7/DJ1), sequence (Q99497 whole entry, looked up, the tested form may be a part): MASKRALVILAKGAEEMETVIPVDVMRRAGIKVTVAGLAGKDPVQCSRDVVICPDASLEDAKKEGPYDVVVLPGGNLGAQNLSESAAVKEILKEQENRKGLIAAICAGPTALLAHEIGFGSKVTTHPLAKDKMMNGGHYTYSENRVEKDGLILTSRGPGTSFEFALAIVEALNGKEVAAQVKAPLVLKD

The test addresses Parkinson's disease protein 7 (PARK7/DJ1) (human, UniProt Q99497). As to the kind of experiment: primary screen, percent inhibition; read as competition with a fluorescent probe by fluorescence polarization; higher = more effect of the substance. Particulars: 100 µM. In outline:
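Fluorescence-polarization probe displacement (JYQ-107, 20 nM final, 2 h) after 2 h preincubation of PARK7 (0.2 μM final) with each fragment at 100 μM final. Read-out ex/em 480/520 nm; remaining activity derived from FP signal loss relative to reference controls.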
Regarding `C=CCNC(=O)C(C#N)=Cc1cc(C)c(O)c(C)c1`, the Inhibition % worked out at 6.22%.
In the case of `C=CC(=O)N1CCC(OCC2CC2)CC1`, the Inhibition % was -0.254%.
On to `C=CC(=O)N1CCSC(C(F)(F)F)C1` (stereo not shown), for which the Inhibition % stood at 3.31%.
`Cc1nc(C#N)c(NC(C)c2ccccc2)o1` (stereo not shown): the Inhibition % came out at 1.91%.
For `N#Cc1ccnc(SC2CCOC2=O)c1` (stereo not shown), the Inhibition % worked out at 17.8%.
For the compound `CC1(C)OB(c2ccnn2-c2ccccc2)OC1(C)C`, the Inhibition % was determined as 14.9%.
In the case of `C=CC(=O)NC1CCN(C(=O)c2ccco2)CC1` it was 7.43%; in that of `CN(C1CCC(CO)CC1)S(=O)(=O)C=Cc1ccccc1` (stereo not shown), 7.5%.
For the compound `O=C(NCC1CCCCC1O)c1cccnc1S` (stereo not shown), the Inhibition % stood at 8.44%.
Turning to `N#Cc1ncccc1OCCn1cccn1`, the Inhibition % is listed as 10.9%.
As for `CCn1c(S)nc2ccsc2c1=O`, the figure is -2.86%; as for `Cc1csc(C2C(=O)NC(S)=C(C#N)C23CCCCC3)n1` (stereo not shown), 2.61%; as for `CN(Cc1cccc(F)c1)C1CCOC1=O` (stereo not shown), 2.06%.
As for `Cc1ccc(C=CC(=O)N2CCCC(C(=O)O)C2)o1` (stereo not shown), the Inhibition % worked out at 3.06%.
In the case of `O=C(NCC12CCCN1CCC2)c1cccc(S(=O)(=O)F)c1` it was 86.4%; in that of `CCC(NC(=O)c1cccnc1S)c1c(C)noc1C` (stereo not shown), 8.89%.
In the case of `Cc1ccccc1CC(=O)NNC(=O)CCl` it was 24%; in that of `C=CC(=O)Nc1cccc2c1N(C(C)=O)CC2`, 4.01%.
In the case of `CN(C)c1nc(CNC(=O)c2ccc(C#N)[nH]2)cs1` it was 6.61%.
On to `O=C(CN1CCSC1=O)Nc1cc(Cl)cc(Cl)c1`, for which the Inhibition % came out at 0.338%.
Take `CN(C)c1cnc(C#N)cn1`: the Inhibition % is -1.78%.
As for `CC1(C)OB(c2ccc3c(c2)NC(=O)C3=O)OC1(C)C`, the figure is 9.64%; as for `O=C(CC1OCCCO1)N1CCSC2CCCCC21` (stereo not shown), 19%; as for `CC1(C)OB(c2ccc(F)c(CN)c2)OC1(C)C.Cl`, 3.76%.
In the case of `C=CC(=O)NCCC1C[C@@H]2C=C[C@H]1C2` (stereo partly shown) it was 5.8%; in that of `N#CC(=CC1CC=CCC1)C(N)=O` (stereo not shown), 1.65%; in that of `N#CC(=Cc1cccnc1)C(=O)Nc1ccc(F)cc1`, 3.53%.
In the case of `Nc1cc(N)nc(S)n1` it was 6.46%; in that of `N#Cc1nccnc1N1CCC(C(F)(F)F)CC1`, 2.52%; in that of `CC1CC(NC(=O)c2n[nH]c3ccccc23)C(=O)O1` (stereo not shown), 9.75%.
For `O=C(c1ccccc1O)N1CCC(C2OCCO2)CC1`, the Inhibition % came to 6.55%.
In the case of `O=C(CCl)c1c[nH]c2ccncc12` it was 24.6%.
As for `N#Cc1c(NC(=O)CCl)sc2c1CCCC2`, the figure is 4.78%; as for `C=CC(=O)NCC(C)c1nncn1C` (stereo not shown), 28.8%.
In the case of `C=CC(=O)N1CCn2cccc2C1c1ccccc1` (stereo not shown) it was 5.2%; in that of `CC(C)(C)NS(=O)(=O)C1(C2CO2)CCC1` (stereo not shown), 7.81%.
`Cc1cc(C)cc(NC2C=CS(=O)(=O)C2)c1` (stereo not shown): the Inhibition % was 11.5%.
For `O=C(O)c1ccc(C2OCCO2)cc1`, the Inhibition % worked out at 7.82%.
Regarding `C=CC(=O)NCc1noc(C2CC2)n1`, the Inhibition % was 15.2%.
As for `C=CC(=O)NCC1CCc2nc(C(F)(F)F)cn2C1` (stereo not shown), the figure is 1.96%; as for `C=CC(=O)N(C)CC1COc2ccccc2O1` (stereo not shown), 3.26%; as for `Cl.Cn1cncc1CCCl`, 5.21%.
In the case of `C=CC(=O)N(C)C1CCN(CC)C(C)C1` (stereo not shown) it was 10.6%; in that of `COc1ccc(-c2nc(C#N)c(NCC(C)C)o2)cc1`, 6.61%.
`COc1ccccc1-c1nnc(-c2ccc(S(=O)(=O)F)cc2)o1`: the Inhibition % is recorded as 9.83%.
Take `C=CC(=O)N1CCCC1(C)c1ccccc1` (stereo not shown): the Inhibition % was found to be 3.15%.
As for `Cc1nc(C=CC(=O)N2CCCCC2CN)cs1` (stereo not shown), the figure is 11.1%; as for `C=CC(=O)N1CSCC1C(=O)NCC1CC1` (stereo not shown), 12.6%.
As for `COc1ccc(C(C)C)cc1S(=O)(=O)n1cccn1`, the figure is 2.8%; as for `C=CC(=O)N1CC(C)(C)C1c1cccs1` (stereo not shown), 8.35%; as for `C=CC(=O)N(C)C(c1ccc(Cl)cc1)C1CCOCC1` (stereo not shown), 6.78%.
`C=CC(=O)N1C[C@@H](C(F)(F)F)[C@H](S(=O)(=O)N(C)C)C1`: the Inhibition % is 4.79%.
Regarding `C#CC(=O)Cc1ccccc1`, the Inhibition % is on record as 7.8%.
With `C=CC(=O)N1CC(N)C1.O=S(=O)(O)C(F)(F)F`, the Inhibition % is listed as 8.51%.
As for `COc1ccc(B2OC(C)(C)C(C)(C)O2)c(N)c1`, the figure is 56%.
As for `Cc1nc(C=CC(=O)N2CCC(C(=O)O)C2)cs1.Cl.Cl` (stereo not shown), the figure is 5.34%; as for `C=CC(=O)NCc1ccns1`, 10.9%.
As for `Cn1ncc(Cl)c1B1OC(C)(C)C(C)(C)O1`, the figure is 25%.
`C=CC(=O)Nc1cc(F)ccc1C`: the Inhibition % is reported as 3.57%.
In the case of `N#Cc1cnn(-c2ccccc2)c1NC(=O)CCl` it was 2.36%.
As for `CCN(C(=O)c1cc(B(O)O)ccc1F)C1CCOC(C)(C)C1` (stereo not shown), the figure is 3.67%.
